Results published in paper PMC6919601, “Identification of Plasmodium dipeptidyl aminopeptidase allosteric inhibitors by high throughput screening” (PLoS ONE, 2019).
About 230 (0.21%) of roughly 110,000 compounds showed an effect of 50% or more. Some of the results follow.

The compounds below were run against DPAP1 (Plasmodium falciparum, UniProt Q8IIJ9) (assay: primary screen, percent inhibition; read by cleavage of a fluorogenic dipeptide substrate; higher = more effect of the substance).
Design: species or system P. falciparum D10 trophozoite lysates; single well
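Note: 30 min substrate incubation versus DMSO and 10 µM JCP410 controls.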

DPAP1, sequence (Q8IIJ9 whole entry, looked up): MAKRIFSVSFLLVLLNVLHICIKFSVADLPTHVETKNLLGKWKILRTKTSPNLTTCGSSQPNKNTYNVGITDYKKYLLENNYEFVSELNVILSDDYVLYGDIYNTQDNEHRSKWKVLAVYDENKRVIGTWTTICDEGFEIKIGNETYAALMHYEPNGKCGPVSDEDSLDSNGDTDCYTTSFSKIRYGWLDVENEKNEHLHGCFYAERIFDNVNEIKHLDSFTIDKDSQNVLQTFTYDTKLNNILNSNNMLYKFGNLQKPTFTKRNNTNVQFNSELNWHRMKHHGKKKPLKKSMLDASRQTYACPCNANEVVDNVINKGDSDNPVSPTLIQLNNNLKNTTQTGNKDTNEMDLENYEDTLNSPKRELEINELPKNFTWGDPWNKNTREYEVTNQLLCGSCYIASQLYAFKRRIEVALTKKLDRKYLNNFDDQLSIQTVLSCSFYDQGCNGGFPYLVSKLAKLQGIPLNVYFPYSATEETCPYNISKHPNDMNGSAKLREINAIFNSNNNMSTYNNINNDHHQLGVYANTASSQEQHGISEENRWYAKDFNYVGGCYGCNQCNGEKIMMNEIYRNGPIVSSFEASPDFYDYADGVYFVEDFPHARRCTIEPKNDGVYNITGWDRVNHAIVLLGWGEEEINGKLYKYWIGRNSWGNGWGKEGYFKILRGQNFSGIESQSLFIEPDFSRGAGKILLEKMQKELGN

**Q.** `CCOc1ccc(NC(=O)C2CCCC2)cc1` was tested. Which “% Inhibition @ 10 uM” value did it give?
**A.** -1.52%

**Q.** `Cc1cccc(CNC(=O)c2ccc(-n3cnc4cccnc43)cc2)c1` was tested. Which “% Inhibition @ 10 uM” value did it give?
**A.** -2.4%

**Q.** For `CCOC(=O)C1=C(CN2CC=C(c3ccccc3)CC2)NC(=O)NC1c1ccc(Cl)cc1` (stereo not shown), which “% Inhibition @ 10 uM” value is on record?
**A.** 0.708%

**Q.** With `CCC1CCCCN1Cc1nc2c(c(=O)n(C)c(=O)n2C)n1CC(C)C` (stereo not shown) as the compound, how does the “% Inhibition @ 10 uM” value read?
**A.** -1.43%

**Q.** For `CCN(CC)CCCNC(=O)Cn1cnc2c1c(=O)n(C)c(=O)n2C`, which “% Inhibition @ 10 uM” value is on record?
**A.** 6.12%

**Q.** How did the “% Inhibition @ 10 uM” value turn out when `CC(C)(C)OC(=O)N1CCC(c2c(C(=O)Nc3ccccn3)cnn2-c2cccc(F)c2)CC1` was run?
**A.** -1.43%

**Q.** Which “% Inhibition @ 10 uM” value does the source give for `CC1CN(C)C(C)CC1n1nc(O)cc1N` (stereo not shown) here?
**A.** -0.45%

**Q.** With `CC(C)(C)c1ccc(C2C(C(=O)c3ccc4c(c3)OCCO4)=C(O)C(=O)N2Cc2cccnc2)cc1` (stereo not shown) as the compound, how does the “% Inhibition @ 10 uM” value read?
**A.** 2.79%

**Q.** `Cc1cccc(NS(=O)(=O)c2cc(C(=O)Nc3ccccc3C(=O)O)ccc2C)c1` was tested. Which “% Inhibition @ 10 uM” value did it give?
**A.** 31.6%

**Q.** How did the “% Inhibition @ 10 uM” value turn out when `COc1cccc2c1cc1c(=O)n(CC(=O)NCCc3c[nH]c4ccccc34)nc(C)n12` was run?
**A.** 0.0198%

**Q.** For `Cc1ccc(S(=O)(=O)NC2=NCN(Cc3cccnc3)CN2)cc1`, which “% Inhibition @ 10 uM” value is on record?
**A.** 3.36%

**Q.** With `CCCC1=NN2C(=N)/C(=C/c3cc(Br)ccc3OC)C(=O)N=C2S1` as the compound, how does the “% Inhibition @ 10 uM” value read?
**A.** 0.685%

**Q.** `C=CCOc1ccc(C(=O)C2=C(O)C(=O)N(CCN(C)C)C2c2ccc(C(C)C)cc2)cc1C` (stereo not shown) was tested. Which “% Inhibition @ 10 uM” value did it give?
**A.** -1.93%

**Q.** How did the “% Inhibition @ 10 uM” value turn out when `O=C(c1cc2c(Cl)nc3ccccc3c2s1)N1CCC2(CC1)OCCO2` was run?
**A.** -3.06%

**Q.** Which “% Inhibition @ 10 uM” value does the source give for `CN(C)c1ccc(/C=C2\SC(=N)N(c3nccs3)C2=O)cc1` here?
**A.** -3.9%

**Q.** How did the “% Inhibition @ 10 uM” value turn out when `CCOc1ccc(NC(=O)CCN2CCN(c3ccccc3)CC2)cc1` was run?
**A.** -3.72%

**Q.** For `Cc1ccc(C(=O)NC(C)c2ccc(C)c(C)c2)s1` (stereo not shown), which “% Inhibition @ 10 uM” value is on record?
**A.** -2.74%

**Q.** `COc1ccccc1CNC(=O)/C=C/c1ccccc1` was tested. Which “% Inhibition @ 10 uM” value did it give?
**A.** -3.26%

**Q.** `O=C(Nc1cc2nn(-c3ccccc3)nc2cc1Cl)c1ccco1` was tested. Which “% Inhibition @ 10 uM” value did it give?
**A.** 2.23%

**Q.** For `Cc1ccc(CN(Cc2ccccc2)C(=S)NCC(=O)NCc2cccnc2)o1`, which “% Inhibition @ 10 uM” value is on record?
**A.** 8.9%

**Q.** `N#Cc1cc2c(ccc3ccccc32)oc1=O` was tested. Which “% Inhibition @ 10 uM” value did it give?
**A.** 0.0345%

**Q.** `COC(=O)c1c(NC(=O)Cc2coc3cc(C)cc(C)c23)sc(C(C)=O)c1C` was tested. Which “% Inhibition @ 10 uM” value did it give?
**A.** -2.4%

**Q.** `Clc1nc(-c2ccccc2)ncc1Oc1ccccc1` was tested. Which “% Inhibition @ 10 uM” value did it give?
**A.** 3.53%

**Q.** How did the “% Inhibition @ 10 uM” value turn out when `CCOC(=O)C1=C(NC(=O)c2ccc(C)cc2)S/C(=C\c2ccc(CC)s2)C1=O` was run?
**A.** -3.74%

**Q.** Which “% Inhibition @ 10 uM” value does the source give for `C=CCNC(=O)c1cc(-c2ccc(OC)cc2)nc2ccc(C(C)C)cc12` here?
**A.** -4.06%

**Q.** With `Cc1cccc(CN2CCC(CNC(=O)c3cc4c(C)nc5ccccc5c4o3)CC2)c1` as the compound, how does the “% Inhibition @ 10 uM” value read?
**A.** -5.25%

**Q.** Which “% Inhibition @ 10 uM” value does the source give for `COc1ccccc1C1CC(=O)NC(SCc2ccccc2)=C1C#N` (stereo not shown) here?
**A.** -6.37%

**Q.** Which “% Inhibition @ 10 uM” value does the source give for `O=C(NC1CC1)c1ccc(CSc2nc3ccncc3n2Cc2ccc(F)cc2)cc1` here?
**A.** 1.03%

**Q.** `COc1cc(OC)cc(C(=O)Nc2ccc(NC(=O)c3cc(OC)cc(OC)c3)cc2)c1` was tested. Which “% Inhibition @ 10 uM” value did it give?
**A.** -3.18%

**Q.** For `O=C(NC1CCCC1)c1ccc(-c2ccccc2)s1`, which “% Inhibition @ 10 uM” value is on record?
**A.** -0.447%

**Q.** `CCCC(NC(=O)Nc1cn(CC(C)C)c(=O)c2ccccc12)c1cccs1` (stereo not shown) was tested. Which “% Inhibition @ 10 uM” value did it give?
**A.** -5.38%

**Q.** `Cc1c2cnn(CC(=O)NCC3CCCO3)c(=O)c2c(C)n1Cc1ccc(Cl)cc1` (stereo not shown) was tested. Which “% Inhibition @ 10 uM” value did it give?
**A.** -0.447%

**Q.** With `O=C(NC1(C(F)(F)F)NC(=O)N(c2ccc(F)cc2)C1=O)c1ccccc1F` (stereo not shown) as the compound, how does the “% Inhibition @ 10 uM” value read?
**A.** 0.475%

**Q.** `Cc1cc(C)cc(NC(=O)Nc2ccc(Cl)cc2)c1` was tested. Which “% Inhibition @ 10 uM” value did it give?
**A.** 2.6%

**Q.** How did the “% Inhibition @ 10 uM” value turn out when `CC(C)C[C@H](NC(=O)OC1CCOc2ccccc21)C(=O)NCC#N` (stereo partly shown) was run?
**A.** 1.71%

**Q.** `COc1cccc(OCCCCN2CCOCC2)c1` was tested. Which “% Inhibition @ 10 uM” value did it give?
**A.** 3.35%

**Q.** With `Fc1ccc(N2CCN(Cc3cccnc3)CC2)cc1` as the compound, how does the “% Inhibition @ 10 uM” value read?
**A.** 0.605%

**Q.** For `Nc1n[nH]c(-c2ccc(Br)cc2)n1`, which “% Inhibition @ 10 uM” value is on record?
**A.** -0.999%

**Q.** For `O=C(O)/C=C\C(=O)NCCc1ccncc1`, which “% Inhibition @ 10 uM” value is on record?
**A.** -2.5%

**Q.** With `Cc1cc(C)n2nc(SCC(=O)N(C)Cc3ccccc3)nc2n1` as the compound, how does the “% Inhibition @ 10 uM” value read?
**A.** 2.57%

**Q.** Which “% Inhibition @ 10 uM” value does the source give for `COc1ccc(CCNc2oc(COc3ccc(Cl)cc3)nc2C#N)cc1` here?
**A.** -3.77%

**Q.** For `c1cc2c[nH]nc2cc1NC1CCSC1` (stereo not shown), which “% Inhibition @ 10 uM” value is on record?
**A.** -1.82%

**Q.** For `N#CCN1CCn2c3c(c4cc(C5CCCCC5)ccc42)CCCC31` (stereo not shown), which “% Inhibition @ 10 uM” value is on record?
**A.** 1.26%

**Q.** How did the “% Inhibition @ 10 uM” value turn out when `COC(=O)/C=c1\sc2n(c1=O)CCN=2` was run?
**A.** -1.48%

**Q.** How did the “% Inhibition @ 10 uM” value turn out when `O=C(CN1C(=O)c2cccc3cccc(c23)C1=O)NCCO` was run?
**A.** -4.26%

**Q.** Which “% Inhibition @ 10 uM” value does the source give for `Cc1ccc(SCCNC(=O)CN(c2cc(C(F)(F)F)ccc2Cl)S(C)(=O)=O)cc1` here?
**A.** 2.44%

**Q.** `O=C1C2C(c3ccccc3)OC3(C(=O)c4ccccc4C3=O)C2C(=O)N1c1ccc(Cl)cc1` (stereo not shown) was tested. Which “% Inhibition @ 10 uM” value did it give?
**A.** 6.52%

**Q.** For `Cc1ccc2c(Cl)c(C(=O)Nc3ccc(N(C)C)cc3)sc2c1`, which “% Inhibition @ 10 uM” value is on record?
**A.** 4.52%

**Q.** For `COc1ccc(NC(=O)C23CC4CC(C2)CC(n2cnc(Br)n2)(C4)C3)cc1Cl`, which “% Inhibition @ 10 uM” value is on record?
**A.** -11.6%
